System: splenic follicular helper T cells (Tfh)
Details: mouse, in vivo, ip

CCCCCCCCCCCCCCCCOP(=O)([O-])OCC[N+](C)(C)C [miltefosine]
Percentage of splenic follicular helper T cells (Tfh): significantly higher

Reference: US12144856B2 (priority 2019, dated 2024)
